Consider 110 sequences from publication PMC6212790.

The other results are listed elsewhere or left out. At the low end of the ranking, values are background and their order means little.

For this experiment, the target named is T1, GST-Rok (full length) (UniProt O34857).
T1 sequence: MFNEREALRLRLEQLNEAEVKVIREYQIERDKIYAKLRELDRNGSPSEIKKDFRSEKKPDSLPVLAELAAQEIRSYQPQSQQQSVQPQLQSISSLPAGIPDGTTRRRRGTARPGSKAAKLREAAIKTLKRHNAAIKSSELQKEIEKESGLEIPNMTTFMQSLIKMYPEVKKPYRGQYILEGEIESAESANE
The experiment can be described thus: protein binding microarray.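 Also: rank score from −0.5 (least bound) to 0.5 (best bound).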 To be noted: Rok is a gene silencer of Bacillus subtilis; high values mean tight binding; most listed sequences are background and not binding sites; double strand, one strand shown.
Sequence CCACTCGG yielded a binding signal of -0.233 E-score. Under ATTTGCGA stands 0.173 E-score. Then TCGGCGAA, with 0.0797 E-score; and AAAAAGAG, with -0.106 E-score. On to CGGATGAC, for which the binding signal is -0.0291 E-score. Take CGTAAAAG: the binding signal amounted to 0.0563 E-score.

In turn, AAGCTTAT registered a binding signal of 0.0982 E-score.

The sequence GACGCTCA came in with a binding signal of -0.0574 E-score.

With GTTGGTAA, the binding signal amounted to 0.0337 E-score.

With CCCCGTAA, the binding signal is -0.135 E-score. Under CAGATTAA stands 0.115 E-score; under GTGGCCAA, -0.167 E-score; under AACTATAG, 0.331 E-score. Then AGGTGGTG, with 0.0573 E-score; and AGTGGCGC, with -0.221 E-score. ATACATAT: the binding signal came out at 0.399 E-score. CGAACTCG returned a binding signal of 0.0764 E-score. ACTTAGTC: the binding signal was 0.157 E-score.

On to ATAATCAG, for which the binding signal stood at 0.0542 E-score. Then ACAGAAGG, with -0.105 E-score; and CCTTCGAC, with -0.124 E-score; and ATCCCCAA, with -0.0597 E-score. Under ACGGCAAC stands 0.084 E-score; under ACATGCAT, 0.252 E-score; under ACGGCACG, -0.102 E-score.

Consider ATACCCAG, for which the binding signal was determined as 0.0725 E-score. In turn, CATAATCC registered a binding signal of 0.0273 E-score. Under AGGTACGA stands 0.112 E-score. As to AAAGGAAA, the binding signal is -0.328 E-score. The sequence CGCGCGGA showed a binding signal of -0.0543 E-score.

Sequence CCCTTTAG showed a binding signal of -0.19 E-score.

AAATTTCT gave a binding signal of 0.186 E-score.

Turning to CCACCCAA, the binding signal is -0.261 E-score. Take ACGACTGG: the binding signal was -0.175 E-score. Under AGAGAGTA stands -0.00625 E-score.

On to AGCGTCGC, for which the binding signal was -0.181 E-score. Then GGGTGGAA, with -0.375 E-score; and GCCTATTA, with 0.0531 E-score; and AACAGTCT, with -0.124 E-score. Sequence CATAATGG came in with a binding signal of 0.103 E-score. For AAGCCACA, the binding signal was -0.118 E-score. For AGCCGTTC, the binding signal is -0.0447 E-score.

AGTGCGCA: the binding signal worked out at 0.106 E-score. Consider TGCGAACA, for which the binding signal is 0.0411 E-score. Under ATGTTTGG stands 0.135 E-score.

Regarding GGCTTGTA, the binding signal turned out to be 0.0712 E-score.

Take CGGGACAG: the binding signal is -0.216 E-score. Under GGAGATAC stands 0.12 E-score. Turning to CAGCATAG, the binding signal is -0.0981 E-score. Then GAAGCACA, with -0.102 E-score; and CAGTGGAA, with 0.0127 E-score. Under GACTGCTA stands 0.0596 E-score; under ATGCTGAA, 0.102 E-score; under CGTACGTC, 0.121 E-score.

Regarding AGACCGAG, the binding signal was -0.201 E-score. Then CGCCATAC, with 0.051 E-score; and GTGAGCAC, with -0.141 E-score; and ATAACCTG, with 0.0388 E-score. Under CTTAAGGC stands -0.222 E-score. Then AAACAAAG, with 0.128 E-score. In the case of ATATCCGA, the binding signal was found to be 0.189 E-score.

Sequence ACATTTAT displayed a binding signal of 0.281 E-score. Then CCCGAGTC, with -0.288 E-score. CAGTAAGA registered a binding signal of 0.228 E-score.

GTGGGAAA came in with a binding signal of -0.139 E-score. Then ATATGGAG, with 0.202 E-score. Under GACATTTA stands 0.0492 E-score; under ACTATTAT, 0.386 E-score; under ACGCATCG, -0.103 E-score.

The sequence ATGGTAGA yielded a binding signal of 0.444 E-score. Then CGCCAGCG, with -0.182 E-score; and GTGCGCGA, with -0.161 E-score. GGTGTTGA: the binding signal was found to be 0.171 E-score. Then GCGTCAAC, with -0.201 E-score; and CTCCTCAC, with -0.11 E-score.

AGTTGTCC gave a binding signal of -0.0321 E-score.

In turn, ATCGCGGA returned a binding signal of 0.0458 E-score. For the sequence ACACGAGG, the binding signal is -0.0207 E-score. For CCTCATGA, the binding signal was -0.228 E-score. Then ATTGGAGA, with -0.0523 E-score; and GATCAATC, with -0.0771 E-score.

Consider GAACATTA, for which the binding signal amounted to 0.159 E-score. In the case of AAGTGCGA, the binding signal was -0.0736 E-score.

In the case of ATACGTTA, the binding signal stood at 0.138 E-score. Consider CAAATCAG, for which the binding signal was determined as 0.0586 E-score.

The sequence TCAAGCAA registered a binding signal of -0.0617 E-score. Regarding CCCTTTAC, the binding signal was -0.291 E-score. As for AAATCTCC, the binding signal was 0.176 E-score. In turn, CAGCGGAG yielded a binding signal of -0.176 E-score. In turn, AGGACGTC returned a binding signal of -0.26 E-score.

With AACTGCCT, the binding signal was 0.0301 E-score. Then GTTGAGGA, with -0.0613 E-score; and AGTGAGCA, with -0.0803 E-score. ATAGTATA yielded a binding signal of 0.278 E-score.

For the sequence AAAAGCAG, the binding signal turned out to be 0.0313 E-score. Then ACGACACC, with 0.151 E-score; and AGAAGCAG, with -0.0328 E-score; and GAAGTCCA, with -0.0509 E-score.

On to GAGACAAA, for which the binding signal was -0.0923 E-score.

Sequence TCAATCGA displayed a binding signal of -0.0465 E-score. Then GTAAAATA, with 0.328 E-score. CACCATTC came in with a binding signal of -0.0814 E-score. Then AGCGGCAA, with -0.199 E-score; and ATCAAGGA, with -0.0849 E-score; and CGAACCCC, with -0.203 E-score. Then ATTGCCAC, with 0.0766 E-score. In turn, AAGAAGTA showed a binding signal of 0.1 E-score.

The sequence TATGGAGA gave a binding signal of 0.0793 E-score. For the sequence GCAACCTA, the binding signal is 0.173 E-score.

The sequence AGTGCTAG returned a binding signal of 0.00281 E-score.
